Assay [1] deals with STK38-FLAG (UniProt Q15208). The experiment in a line: co-IP; GFP-FLAG or STK38-FLAG overexpressed in HEK293T cells, stimulated with Wnt3a; IP of STK38; IP product immunoblotted. For orientation: A western blot detects proteins with antibodies after separation by electrophoresis.
Assay [2] concerns the target T1, FLAG-tagged NLRP12 (UniProt P59046).
T1 sequence: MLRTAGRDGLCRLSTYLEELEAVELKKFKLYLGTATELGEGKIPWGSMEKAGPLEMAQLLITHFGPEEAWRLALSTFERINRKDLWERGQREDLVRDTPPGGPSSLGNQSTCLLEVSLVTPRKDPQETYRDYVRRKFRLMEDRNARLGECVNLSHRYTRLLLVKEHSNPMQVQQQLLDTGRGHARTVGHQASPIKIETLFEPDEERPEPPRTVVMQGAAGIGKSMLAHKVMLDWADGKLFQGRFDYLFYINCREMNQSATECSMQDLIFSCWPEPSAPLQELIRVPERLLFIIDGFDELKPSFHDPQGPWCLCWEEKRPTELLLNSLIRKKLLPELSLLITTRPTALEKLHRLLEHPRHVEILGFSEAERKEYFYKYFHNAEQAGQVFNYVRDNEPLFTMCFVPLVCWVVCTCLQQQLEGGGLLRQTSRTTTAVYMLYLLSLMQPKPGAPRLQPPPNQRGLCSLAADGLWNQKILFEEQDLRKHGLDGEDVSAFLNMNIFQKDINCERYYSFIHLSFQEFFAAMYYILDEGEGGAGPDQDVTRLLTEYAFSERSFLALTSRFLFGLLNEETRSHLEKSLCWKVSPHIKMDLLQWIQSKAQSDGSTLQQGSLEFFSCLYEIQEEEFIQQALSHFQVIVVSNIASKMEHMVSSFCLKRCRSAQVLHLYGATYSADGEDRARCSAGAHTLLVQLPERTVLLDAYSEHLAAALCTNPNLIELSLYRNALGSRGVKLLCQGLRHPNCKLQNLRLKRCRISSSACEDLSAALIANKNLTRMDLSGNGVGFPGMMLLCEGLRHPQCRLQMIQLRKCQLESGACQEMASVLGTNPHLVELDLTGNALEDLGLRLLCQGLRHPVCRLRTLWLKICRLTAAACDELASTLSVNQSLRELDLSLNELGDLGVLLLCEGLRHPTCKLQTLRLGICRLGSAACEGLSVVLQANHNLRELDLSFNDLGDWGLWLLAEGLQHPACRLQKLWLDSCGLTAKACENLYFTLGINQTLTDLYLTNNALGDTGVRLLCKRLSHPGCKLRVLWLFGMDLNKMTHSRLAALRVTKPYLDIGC
Description: co-IP; HEK293T and HCT116 cells overexpressing FLAG-tagged NLRP12 or GFP, stimulated with Wnt3a; NLRP12 pulled down with an anti-FLAG antibody; IP product immunoblotted.

Protein sequences, listed by entry. Tags and fused reporters are not part of them.
UniProt Q15208: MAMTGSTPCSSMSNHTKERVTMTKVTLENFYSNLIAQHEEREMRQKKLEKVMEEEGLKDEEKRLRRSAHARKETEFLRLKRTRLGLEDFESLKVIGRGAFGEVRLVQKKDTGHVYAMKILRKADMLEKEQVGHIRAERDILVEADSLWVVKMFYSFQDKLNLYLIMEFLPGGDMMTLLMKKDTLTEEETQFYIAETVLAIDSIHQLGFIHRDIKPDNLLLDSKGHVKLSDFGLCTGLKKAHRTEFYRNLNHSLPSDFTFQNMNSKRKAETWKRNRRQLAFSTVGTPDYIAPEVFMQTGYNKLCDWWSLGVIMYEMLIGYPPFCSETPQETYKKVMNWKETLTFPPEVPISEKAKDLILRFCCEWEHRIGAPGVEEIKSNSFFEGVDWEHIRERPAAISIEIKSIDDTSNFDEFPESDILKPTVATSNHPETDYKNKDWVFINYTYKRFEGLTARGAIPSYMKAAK
UniProt P49841: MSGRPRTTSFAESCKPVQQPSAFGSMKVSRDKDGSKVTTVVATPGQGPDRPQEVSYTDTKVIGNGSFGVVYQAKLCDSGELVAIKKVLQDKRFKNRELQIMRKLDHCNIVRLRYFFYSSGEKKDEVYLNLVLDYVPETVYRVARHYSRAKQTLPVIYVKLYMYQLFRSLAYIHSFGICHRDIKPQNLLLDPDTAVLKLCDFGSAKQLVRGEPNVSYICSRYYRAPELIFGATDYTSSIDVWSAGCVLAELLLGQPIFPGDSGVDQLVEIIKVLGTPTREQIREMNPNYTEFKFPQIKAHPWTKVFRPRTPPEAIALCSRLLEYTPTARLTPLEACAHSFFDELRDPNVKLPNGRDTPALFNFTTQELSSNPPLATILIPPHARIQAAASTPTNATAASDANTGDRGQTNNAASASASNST

In assay [3] the target is STK38 (overexpressed together with NLRP12) (UniProt Q15208). Description: co-IP; NLRP12 and STK38 both overexpressed in HEK293T cells; detected by Western blotting (Supplemental Figure 11A).
The target of assay [4] is STK38-FLAG, Q15208. The experiment in a line: co-IP; GFP-FLAG or STK38-FLAG overexpressed in HEK293T cells, stimulated with Wnt3a; IP of STK38; IP product immunoblotted. The conditions noted are these: remark: other sources report otherwise.

These are yes or no findings as the source states them, for the method shown. Binding seen in cells or lysates may run through a third protein. Some results given as binding are weak or reduced against the parent protein; the word gives no strength. For some assays here: Where a sequence is shown, tags or fusion partners need not be part of it.

The text below walks through data of article PMC10541192.

On to “glycogen synthase kinase 3β (from UniProt P49841 1-420)”, for which the binding entry in assay [1] is reported as “binds”.

Consider STK38 (from UniProt Q15208 1-465), for which the binding result in assay [2] was “binds”.

B1: NLRP12 (overexpressed together with STK38) (protein, UniProt P59046 1-1061)
chain: T1 sequence
In the case of B1, in assay [3], the binding entry is “binds”.

B2: NLRP12 (protein, UniProt P59046 1-1061)
chain: T1 sequence
Take B2: the binding result in assay [1] is recorded as “binds”.

B3: β-catenin, P35222 1-781 (protein)
chain: MATQADLMELDMAMEPDRKAAVSHWQQQSYLDSGIHSGATTTAPSLSGKGNPEEEDVDTSQVLYEWEQGFSQSFTQEQVADIDGQYAMTRAQRVRAAMFPETLDEGMQIPSTQFDAAHPTNVQRLAEPSQMLKHAVVNLINYQDDAELATRAIPELTKLLNDEDQVVVNKAAVMVHQLSKKEASRHAIMRSPQMVSAIVRTMQNTNDVETARCTAGTLHNLSHHREGLLAIFKSGGIPALVKMLGSPVDSVLFYAITTLHNLLLHQEGAKMAVRLAGGLQKMVALLNKTNVKFLAITTDCLQILAYGNQESKLIILASGGPQALVNIMRTYTYEKLLWTTSRVLKVLSVCSSNKPAIVEAGGMQALGLHLTDPSQRLVQNCLWTLRNLSDAATKQEGMEGLLGTLVQLLGSDDINVVTCAAGILSNLTCNNYKNKMMVCQVGGIEALVRTVLRAGDREDITEPAICALRHLTSRHQEAEMAQNAVRLHYGLPVVVKLLHPPSHWPLIKATVGLIRNLALCPANHAPLREQGAIPRLVQLLVRAHQDTQRRTSMGGTQQQFVEGVRMEEIVEGCTGALHILARDVHNRIVIRGLNTIPLFVQLLYSPIENIQRVAAGVLCELAQDKEAAEAIEAEGATAPLTELLHSRNEGVATYAAAVLFRMSEDKPQDYKKRLSVELTSSLFRTEPMAWNETADLGLDIGAQGEPLGYRQDDPSYRSFHSGGYGQDALGMDPMMEHEMGGHHPGADYPVDGLPDLGHAQDLMDGLPPGDSNQLAWFDTDL
Consider B3, for which the binding entry in assay [4] is recorded as “no binding”.
